# The list shows a part of the results. Values were computed here from the reads of four pooled replicates and scatter widely.
# Molecular target: T1, Pho4 (S. cerevisiae) (UniProt P07270)
# T1 sequence: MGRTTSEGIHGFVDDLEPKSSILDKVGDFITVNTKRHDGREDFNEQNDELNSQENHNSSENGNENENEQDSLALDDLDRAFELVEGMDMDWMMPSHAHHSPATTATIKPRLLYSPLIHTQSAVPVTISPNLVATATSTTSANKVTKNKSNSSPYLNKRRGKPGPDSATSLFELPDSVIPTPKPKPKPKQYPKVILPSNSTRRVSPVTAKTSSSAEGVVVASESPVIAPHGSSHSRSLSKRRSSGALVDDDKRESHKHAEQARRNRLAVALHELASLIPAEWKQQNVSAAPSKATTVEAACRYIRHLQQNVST
# Test: relative binding free energy (BET-seq); higher = weaker binding
# Conditions: reference: library average
row,Sequence,relative binding free energy [kcal/mol]
1,GTGTTCACGTGTAGAC,0.3
2,GGAGACACGTGATCGG,0.15
3,TTTTGCACGTGCAAGT,0
4,TTCTTCACGTGGACGT,0.38
5,AGTGACACGTGCGAGG,-0.07
6,GTGTTCACGTGCAAGG,0.16
7,GCGGCCACGTGTGGTT,0.06
8,TGGGACACGTGCATGC,0.08
9,AGCATCACGTGTGTTG,0
10,TTTTTCACGTGTTATC,0.23
11,TTGTCCACGTGTAGCG,0.26
12,CTTGACACGTGGGATG,-0.05
13,TAATGCACGTGTAAGA,0.21
14,TGCTACACGTGAGGGT,0.35
15,GCGTACACGTGATGGG,0.22
16,CTGGTCACGTGGGGCG,-0.04
17,GAGTTCACGTGTGCAG,0.21
18,AGTCGCACGTGGGGAC,-0.14
19,TGTTACACGTGAATAA,0.34
20,GTTAACACGTGGTTCA,0.11
21,GGGCTCACGTGTTATA,0.32
22,TACGTCACGTGTGCGG,0.05
23,TTTTGCACGTGGGAGC,-0.04

row,Sequence,relative binding free energy [kcal/mol]
1,AATTGCACGTGTTGTG,-0.03
2,GTGGGCACGTGGAGAG,0
3,GACTTCACGTGTGTTG,0.33
4,AGTTTCACGTGATAGT,0.27
5,TTTGGCACGTGATTGG,0.02
6,TCTGGCACGTGCGATT,-0.01
7,AATATCACGTGAGTGA,0.31
8,AGTCTCACGTGGATAG,0.28
9,GGGGACACGTGTATAG,0.16
10,TTACCCACGTGGGTGG,-0.15
11,GCGGGCACGTGAGAGT,0.25
12,TTTGGCACGTGCGACG,-0.18
13,TTTTTCACGTGAAATA,0.52
14,CTGTTCACGTGGGCGA,0.18
15,ATTGTCACGTGCGCTT,0.04
16,TTGGGCACGTGTTGTC,-0.05
17,TCGTGCACGTGGTGAC,0.06
18,ACAGACACGTGAGGGT,0.13
19,TTAGTCACGTGAGGAG,0.31
20,TGTGCCACGTGCTATT,-0.02
21,CTTTTCACGTGTGGTT,0.16
22,TCGTTCACGTGTGTCT,0.29
23,GGGTGCACGTGACTGT,0.08

row,Sequence,relative binding free energy [kcal/mol]
1,GTTAGCACGTGAAGTT,0.35
2,GCACTCACGTGGTTGT,0.18
3,AGTGTCACGTGGTCAA,-0.16
4,TTTTGCACGTGTGGCC,0.18
5,ATAGTCACGTGGGTAT,0
6,GAGTTCACGTGTTGTC,0.37
7,TTTTACACGTGTTCAT,0.19
8,CTGCGCACGTGGCTGG,-0.11
9,TGTCACACGTGATGTT,0.11
10,AGAGTCACGTGTGGTA,0.02
11,TATTCCACGTGGAGGG,-0.03
12,TGTCGCACGTGACGTT,-0.01
13,TTGTTCACGTGTTATC,0.25
14,TGTGTCACGTGAATTG,0.3
15,GGCGGCACGTGTTTCG,-0.07
16,ATATACACGTGATTTT,0.1
17,AGGGCCACGTGGGGAG,-0.16
18,GTGTTCACGTGCCTGT,0.24
19,TAAATCACGTGTATTT,0.11
20,GTCAGCACGTGGGATA,-0.05
21,CTGTTCACGTGGTTGA,0.26
22,ATGTTCACGTGGGCCG,0.09
23,TGTACCACGTGGTATT,-0.15

row,Sequence,relative binding free energy [kcal/mol]
1,TAGTTCACGTGTTTTT,0.33
2,GCGGTCACGTGATAGG,0.27
3,AATTGCACGTGGATAT,0.09
4,ACAAGCACGTGTTGGT,-0.03
5,ATGAGCACGTGTGATA,-0.09
6,GGTGGCACGTGACGGC,0.13
7,GAGTGCACGTGGTTGG,-0.08
8,CGAGGCACGTGGGAGT,-0.13
9,TAATTCACGTGTGTTC,0.33
10,CGGAGCACGTGGGAGT,-0.19
11,CGGGTCACGTGGCTGT,-0.03
12,TGGTTCACGTGGTTCG,0.24
13,CAGGGCACGTGGTGCG,-0.1
14,TTACGCACGTGGTGGC,-0.15
15,TTGAGCACGTGTCTTG,-0.12
16,TAGAGCACGTGATGAG,0.13
17,TTGGTCACGTGTACTA,0.04
18,ATATGCACGTGTTCGA,0.08
19,GGACGCACGTGAGCGT,0.26
20,ATCGTCACGTGATTGG,0.28
21,TTTCTCACGTGGGATT,0.08
22,AGGGTCACGTGGTCAA,0.05
23,TTCTTCACGTGAGCGG,0.24

row,Sequence,relative binding free energy [kcal/mol]
1,GAAGGCACGTGTTTTA,-0.07
2,TTGTGCACGTGAGTAG,0.17
3,GGTGTCACGTGTGGAA,0.21
4,ATCGGCACGTGTAGGG,-0.08
5,CTGTGCACGTGATGGC,0.12
6,ACGGACACGTGGATGT,0
7,CTGGACACGTGATTGT,0.16
8,GGGAGCACGTGTGAAT,-0.06
9,AGGTTCACGTGAAGTC,0.34
10,CTGGGCACGTGGCTGA,-0.21
11,TTATTCACGTGCCAGT,0.21
12,TGGTCCACGTGGACGT,0.07
13,GTTAACACGTGTGGAT,0.14
14,GTGTTCACGTGGCTTT,0.24
15,GGGGTCACGTGGTATT,0.04
16,CTGTTCACGTGGGCTA,0.12
17,CGTTTCACGTGATTTA,0.34
18,GGTATCACGTGTGTAG,0.24
19,GGTGACACGTGAGTCG,0.32
20,GAGTACACGTGGTTTC,0.3
21,AGTTACACGTGCGTGA,0.04
22,TGTGGCACGTGAACCG,0.19
23,TGATACACGTGATTAT,0.25

# From the BET-seq Pho4 binding data (Le et al. 2018)
